The list shows a part of the results. These are enrichments in a pooled selection; single values are uncertain. Scores sum up all selected molecules that hold the word; the word was not tested alone.
tested on: IMP3 KH3-4; assay: 6-mer SELEX enrichment z-score vs GST control; IMP3 is the RNA-binding protein IGF2BP3; higher = more enriched by binding; details: construct: KH3-4 (377-579); SELEX round: R4
Method: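 SELEX-seq with GST-tagged IMP3 KH3-4 (Pro377-Lys579) and an N40 RNA pool, round 4. 6-mer z-score of sequence-tag enrichment normalised to the corresponding GST SELEX round; RNA k-mers written as DNA (T for U).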

Chain of IMP3 KH3-4 (chain, as listed by the source): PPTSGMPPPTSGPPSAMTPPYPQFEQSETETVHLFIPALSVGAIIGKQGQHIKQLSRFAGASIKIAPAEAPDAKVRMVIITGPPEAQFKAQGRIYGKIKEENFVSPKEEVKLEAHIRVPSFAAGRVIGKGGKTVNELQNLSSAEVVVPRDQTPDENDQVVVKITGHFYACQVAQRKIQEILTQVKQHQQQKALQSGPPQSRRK

Sequence	6-mer SELEX enrichment z-score
TATCAG	0.577
CGATCG	-1.15
GTCGGA	0.918
CCGGCA	0.487
ACTTCT	0.302
GTTGAC	-0.798
GAATCC	-1.01
TCTGGA	-0.084
GGAGTC	0.476
TGGTGA	0.232
GGGTGC	0.153
CGCTCT	-0.134
ATATGG	1.52
ATTCAG	0.812
GAGATC	-0.061
TACGCC	-0.365
GCATTT	0.194
TTTGGA	0.117
GGATTT	0.884
CACCGC	-0.517

Sequence	6-mer SELEX enrichment z-score
ACACAG	0.958
ATATGC	1.18
AAGGAA	1.1
AAAATA	2.73
TGCGAT	0.015
CAGGCA	1.5
CATCAG	0.079
GTCCCA	-1.14
TCCTGC	-0.811
TCCCGG	-0.761
TGCTCC	-0.164
TAGCAG	0.533
ACTGTT	0.198
TAGAGT	0.262
GTACTC	-1.01
CGGTCA	0.213
CTTGCA	-0.155
AGCATT	0.041
TCGATA	-0.032
CGCTTA	0.254
